Laboratory results from PubChem BioAssay AID1625 (Sanford-Burnham Center for Chemical Genomics, 2009).
The list shows a part of the results. Further columns of the screen follow, without active or inactive calls. The list favours compounds with an active or inconclusive main result.

Test: up-regulation of insulin promoter-GFP reporter – imaging, high-content screening, mouse beta cells (AID 1625);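 note: total cells summed across four imaged fields per well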
Settings: MIN6 insulin promoter-GFP reporter, measured here: cytotoxicity, nuclei count, at 5 µM
For Cc1ccc(C(=O)OCn2ncc(Cl)c(Cl)c2=O)cc1, the cell count was 99 cells. In the case of Cc1cc(Nc2nn(C)c(N)c2C#N)ccc1F, the cell count is reported as 618 cells. Compound C[C@@H](O)[C@@H]1NC(=O)c2cc([N+](=O)[O-])cc(I)c2NCC[C@@H](C(N)=O)NC(=O)CNC1=O has a cell count of 341 cells. O=C(CC12CC3CC(CC(C3)C1)C2)NCC(=O)N1CCc2ccccc2C1 showed a cell count of 904 cells. Work on Cc1cc(C)n(-c2ccc(C(=O)OCC(=O)N(CC(C)C)C3CCS(=O)(=O)C3)cc2)n1 (configuration not stated) yielded a cell count of 1010 cells. CCCCC(=O)NCc1ccc(Cl)cc1 gave a cell count of 462 cells. Compound CCOC(=O)C1CCCN(C(=O)C2CCCN(S(=O)(=O)c3ccc4c(c3)oc(=O)n4C)C2)C1 (configuration not stated) has a cell count of 373 cells. In the case of CCN(CCNC(=O)C1CCCN(S(=O)(=O)CC)C1)c1ccccc1 (configuration not stated), the cell count is reported as 1080 cells. For COc1ccc(NC(=O)/C(Cl)=C(/Cl)S(=O)Cc2ccc(C)cc2)cn1 (configuration not stated), the cell count was 498 cells. With Cn1c(=O)n(C)c2cc(C(=O)Nc3ccc4c(c3)OCO4)ccc21 the cell count was 497 cells. In the case of O=C1C(Cl)=C(Nc2ccc3cn[nH]c3c2)C(=O)c2ccccc21, the cell count is reported as 205 cells. With O=C1N/C(=N/Nc2ccccc2)S/C1=C\c1ccccc1 the cell count was 1250 cells. For CSc1nsc(/C=C/Nc2ccc(C)cc2)c1C#N, the cell count was 1110 cells. NCC12CC3CC(C1)CC(CN)(C3)C2 gave a cell count of 928 cells. In the case of COc1ccc2nc(Nc3nc(CSc4nc5ccccc5[nH]4)cc(=O)[nH]3)nc(C)c2c1, the cell count is reported as 378 cells. CC1CC(C)C[N+](=C2C=C(N3CCCC3)CC(C)(C)C2)C1 (configuration not stated) gave a cell count of 378 cells. CC(C)=NNc1nc2c(c(=O)n(C)c(=O)n2C)n1CCc1ccccc1 showed a cell count of 1120 cells. For CC(=O)n1c(C=Nc2ccccc2)c(O)c2ccccc21, the cell count was 1060 cells. For Cc1ccc(S(=O)(=O)CC2CSc3nc4ccccc4n32)cc1 (configuration not stated), the cell count was 459 cells. Compound C/C(=N\S(=O)(=O)c1ccc(C)cc1)N1CCN(S(=O)(=O)c2ccccc2)C1 has a cell count of 1140 cells. With CC[n+]1c(/C=C/C=C/N(C(C)=O)c2ccccc2)sc2ccccc21 the cell count was 399 cells. N#C/C(=C\C1CC=CCC1)c1nc2ccccc2[nH]1 (configuration not stated) showed a cell count of 318 cells. Compound CCCCCCn1c(NCC)nc2c1c(=O)n(C)c(=O)n2C has a cell count of 258 cells. Work on Cc1nc(N2CCN(C(=O)c3ccco3)CC2)c2c3c(sc2n1)CC(C)CC3 (configuration not stated) yielded a cell count of 276 cells. Work on CCn1c(C)c(P(c2ccccc2)c2ccccc2)[n+]2ccccc12 yielded a cell count of 499 cells. With O=C(CC1SC(=Nc2ccc(OC(F)F)cc2)N(CCC2=CCCCC2)C1=O)Nc1ccccc1F (configuration not stated) the cell count was 315 cells. Cc1nc(NC(=O)COC(=O)CCS(=O)(=O)c2ccccc2Cl)c(Cl)cc1Cl showed a cell count of 1330 cells. Work on Oc1ccc(Cl)cc1C1=Nc2ccccc2N=C(c2ccco2)C1 yielded a cell count of 1130 cells. Work on CCC(=O)Nc1cc(C(=O)OCC(=O)c2ccccc2)ccc1C yielded a cell count of 249 cells. Work on CC[n+]1c(/C=C/c2ccc(N(C)C)cc2)ccc2ccccc21 yielded a cell count of 74 cells. In the case of COc1cc(C2Oc3ccccc3C=C2[N+](=O)[O-])cc(OC)c1OC (configuration not stated), the cell count is reported as 417 cells. CC1(C)CC(N2CCN(Cc3ccccc3)CC2)=CC(=[N+]2CCCCC2)C1 showed a cell count of 497 cells. Brc1ccc2ncnc(NCc3ccco3)c2c1 showed a cell count of 334 cells. CCOc1cc([N+](=O)[O-])cc2c1C(=O)Nc1ccccc1O2 showed a cell count of 1220 cells. Work on FC(F)(F)c1nc(N2CCCC2)ncc1-c1nnnn1-c1ccc(Cl)cc1 yielded a cell count of 353 cells. In the case of CC1=Nc2ccccc2/C1=C/c1sc(=S)n(-c2cccc(C(=O)O)c2)c1O, the cell count is reported as 1210 cells. Work on Nc1c(C(=O)N/N=C/c2ccccc2Cl)oc2nc(-c3ccccc3)cc(-c3ccco3)c12 yielded a cell count of 963 cells. In the case of Cc1cc(C(=O)COC(=O)C2=NNC(=O)CC2)c(C)n1-c1ccc(OC(F)F)cc1, the cell count is reported as 309 cells. For CCN(CC)c1ccc(/C=N/Nc2nc(C)cc(=O)[nH]2)c(O)c1, the cell count was 360 cells. Compound Cc1ccc(Cn2c(=N)n(CC(=O)c3ccc([N+](=O)[O-])cc3)c3ccccc32)cc1 has a cell count of 478 cells. Work on CCN(CC)c1ccc2cc(C(N)=O)/c(=N\NC(=O)c3ccncc3)oc2c1 yielded a cell count of 1600 cells. Work on CCC(C)NC(=O)CC1Oc2ccc(C)cc2NC1=O (configuration not stated) yielded a cell count of 468 cells. In the case of O=C(N/N=C/c1c(O)ccc2ccccc12)c1cccc(C(F)(F)F)c1, the cell count is reported as 368 cells. For CN(C)C(=O)CN(c1ccc2c(c1)OCO2)S(C)(=O)=O, the cell count was 1100 cells. Compound CC[n+]1c(/C=C2/C=C(C)CC(C)(C)C2)sc2ccc(OC)cc21 has a cell count of 271 cells. For CCOC(=O)c1cnc(SCC(=O)Nc2cc(OC)ccc2OC)nc1N, the cell count was 342 cells. Compound OC(COCc1cccs1)CN1CCN(c2cccc(Cl)c2)CC1 (configuration not stated) has a cell count of 440 cells. For COc1ccc(C2=NOC(C(=O)Nc3cc(C)nn3-c3ccccc3)C2)cc1OC (configuration not stated), the cell count was 316 cells. With Cc1cc(C)cc(-n2c(=O)c3sccc3n(CC(=O)NCc3ccco3)c2=O)c1 the cell count was 1100 cells. With CCn1nnc2sc3c(c2c1=O)CCC(C)C3 (configuration not stated) the cell count was 1400 cells. Compound O=C(NC1C=CS(=O)(=O)C1)c1sc2ccccc2c1Cl (configuration not stated) has a cell count of 981 cells. In the case of Cc1cccc2cc3c(N)c(C(=O)N4CCc5ccccc54)sc3nc12, the cell count is reported as 1230 cells. For C=CCc1c(C)nc(C)nc1N/N=C/c1ccc(N(C)C)cc1, the cell count was 389 cells. Compound COc1cc(-c2nc(-c3ccc4c(c3)-c3ccccc3S4(=O)=O)c(-c3ccccc3)[nH]2)cc(OC)c1OC has a cell count of 458 cells. With CC1(C)Cc2c(ccc3ccccc23)C(c2cc3ccccc3oc2=O)=N1 the cell count was 1290 cells. c1cc2c(cc1C1CCCCC1)c1c3n2CCCNC3CCC1 (configuration not stated) gave a cell count of 287 cells. Work on Cc1ccc(S(=O)(=O)N2CCCOC2CNC(=O)C(=O)NCc2ccco2)cc1 (configuration not stated) yielded a cell count of 495 cells. In the case of O=C(COC(=O)c1ccco1)NCC1CCCO1 (configuration not stated), the cell count is reported as 1000 cells. With O=S(=O)(c1ccccc1)N1CCn2c(nc3ccccc32)C1 the cell count was 199 cells. O=[N+]([O-])c1ccc(N2N=C(c3ccco3)CC2c2ccccc2)cc1 (configuration not stated) showed a cell count of 1240 cells. With Cc1ccc(-c2cn3nc(-c4ccccc4)c(-c4ccccc4)nc3n2)cc1 the cell count was 1040 cells. CC(C)NC(=O)/C(C#N)=C\c1ccc(N(C)C)o1 gave a cell count of 1640 cells. Compound O=c1oc2cc(O)ccc2cc1-c1nc2c(s1)CCc1ccccc1-2 has a cell count of 1620 cells. In the case of Cc1ccc(CNc2ccc3c(c2)OCO3)cc1, the cell count is reported as 977 cells. Work on C=CCN1C=CC(=CC=C(C#N)C#N)C=C1 yielded a cell count of 912 cells. With Oc1c(CN2CCN(c3ccc(F)cc3)CC2)cc(Cl)c2cccnc12 the cell count was 399 cells. In the case of CCOC(=O)c1c(C(C#N)C#N)cc(C)nc1C, the cell count is reported as 468 cells. Cc1cccc(Oc2cc(NC(=O)c3ccccc3)cc([N+](=O)[O-])c2)c1 showed a cell count of 395 cells. In the case of CCOC(=O)c1c(C)oc2c(F)c(F)c(F)c(F)c2c1=O, the cell count is reported as 457 cells. In the case of CC(C)(C)C(=O)c1sc2nc(-c3cccs3)cc(C(F)(F)F)c2c1N, the cell count is reported as 1460 cells. CCCCCn1nc(-c2ccccc2)c2nc3ccccc3nc21 gave a cell count of 1650 cells. Compound O=C1C=C(NCCN2CCOCC2)C(=O)c2cnccc21 has a cell count of 336 cells. C/C(=N\NC(=O)NC1CCCCC1)C1CCCCC1 showed a cell count of 437 cells. CC1CC(=O)C2=C(C1)OC(N)=C(C#N)C2c1coc2ccccc2c1=O (configuration not stated) showed a cell count of 1240 cells. N=c1n(Cc2ccccc2)c2ccccc2n1CC(O)COc1ccc(Cl)cc1Cl (configuration not stated) gave a cell count of 385 cells. In the case of c1ccc(CCNc2ncnc3ccccc23)cc1, the cell count is reported as 491 cells. With COC(=O)C1=C(C)N=c2s/c(=C3\C(=O)Nc4ccccc43)c(=O)n2C1c1ccccc1 (configuration not stated) the cell count was 282 cells. Work on COc1cc(/C=C2\CC/C(=C\c3cc(OC)c(O)c(OC)c3)C2=O)cc(OC)c1O yielded a cell count of 362 cells. With O=C(Nc1ccn(Cc2ccc(F)cc2)n1)c1ccncc1 the cell count was 286 cells. Nc1c(C(=O)N/N=C/c2cccnc2)oc2nc(-c3ccco3)cc(-c3ccco3)c12 gave a cell count of 905 cells. In the case of CCN(C(=O)c1ccc(C(C)(C)C)cc1)c1nnc(Cn2nnc3ccccc32)s1, the cell count is reported as 316 cells. In the case of COc1ccc(OC)c(C2C3CN(C(C)C)CC=C3C(C#N)=C(N)C2(C#N)C#N)c1 (configuration not stated), the cell count is reported as 1390 cells. In the case of OC1(c2cn(Cc3ccccc3)nn2)CCCCC1, the cell count is reported as 1170 cells. Compound O=S(=O)(Nc1cc(Sc2ncn[nH]2)c(O)c2ccccc12)c1ccccc1 has a cell count of 300 cells. Compound COC(=O)c1ccc2c(c1)C(C)(C)C(/C=C/c1ccc(O)cc1)=[N+]2C has a cell count of 466 cells. With CCOC(=O)c1ccc(NC(=O)COc2ccc(S(=O)(=O)NC(C)CC)cc2)cc1 (configuration not stated) the cell count was 1420 cells. CCCCCc1cc(=O)oc2c(C(CCN3CCCC(C)C3)c3cc(OC)c(OC)c(OC)c3)c(OC)cc(OC)c12 (configuration not stated) showed a cell count of 190 cells. For COc1ccc(C2C(C(C)=O)=C(C)N=c3s/c(=C\c4cc(C)n(C)c4C)c(=O)n32)c(OC)c1 (configuration not stated), the cell count was 1250 cells. In the case of CCCN1C(=O)c2cccc3c(N4CCCCC4)ccc(c23)C1=O, the cell count is reported as 1520 cells. With CC(C)Cn1c(N)c(C(=O)COC(=O)CC23CC4CC(CC(C4)C2)C3)c(=O)n(C)c1=O the cell count was 218 cells. Work on Cc1ccccc1C(=O)N1CCc2ccccc2C1 yielded a cell count of 1180 cells. S=c1sc2c(Cl)ncnc2n1-c1ccccc1 showed a cell count of 339 cells. In the case of CC1CCC/C=C/C(=O)c2c(O)cc(O)cc2CC(=O)O1 (configuration not stated), the cell count is reported as 353 cells. COc1cc(S(=O)(=O)N2CCOCC2)ccc1NC(=O)COC(=O)C12CC3CC(CC(C3)C1)C2 showed a cell count of 1400 cells. With CN(CCCC(=O)Nc1ccncc1)S(=O)(=O)c1ccc(Cl)cc1 the cell count was 419 cells. For COC(=O)c1sc2nc(CSc3nc4ccc(C)cc4[nH]3)[nH]c(=O)c2c1C, the cell count was 437 cells. Work on CC(Cc1cccs1)NC(=O)Nc1cccc(Cl)c1 (configuration not stated) yielded a cell count of 482 cells. With CCN1C(=O)C(C(=O)NC(C)c2ccccc2)C2CC1(C)Oc1ccccc12 (configuration not stated) the cell count was 296 cells. In the case of N#C/C(=C/c1ccc(N2CCCCC2)o1)C(=O)Nc1ccc2ccccc2c1, the cell count is reported as 947 cells. Compound O=C(CCl)N(c1ccc(Cl)cc1)c1c[nH]c2ccccc12 has a cell count of 469 cells. Work on Oc1ccccc1-c1nnc(SCCN2CCOCC2)n1Cc1ccccc1 yielded a cell count of 480 cells. Compound COc1ccc2c(c1)NC(c1ccc(N(C)C)cc1)c1cccn1-2 (configuration not stated) has a cell count of 1350 cells. O=C(COC(=O)C1CC(O)CN1C(=O)Oc1ccccc1)c1ccc(Br)cc1 (configuration not stated) gave a cell count of 405 cells. For Cn1nc(-c2ccccn2)nc2c(=O)n(C)c(=O)nc1-2, the cell count was 445 cells. In the case of S=C1Cc2ccccc2N1, the cell count is reported as 167 cells. With CC(C)NC(=O)NC(=O)COC(=O)c1cccc(S(=O)(=O)N2CCCCC2)c1 the cell count was 1220 cells. CCOc1ccc(-n2c(-c3ccccc3)c[n+]3c2CCC3)cc1 gave a cell count of 420 cells.
